Legend:
MCF-7 cells [1] = assay: Annexin V-FITC/PI apoptosis assay; type: cell-based, human; settings: MCF-7, 24 h, at IC50 (4.021 μM for 1, 8.35 μM for 3c)
Description: More details in the ESI. ^†
The apoptotic mode of cell death induced by compounds 1 and 3c was further determined to find out whether the cell death was due to apoptosis or necrosis. This assay was carried out using annexin V/PI assay. Annexin V conjugated with FITC was utilized to stain cells in combination with PI.[63] The cells which stained positive for annexin V/PI indicated the cells in the late apoptotic stage which have lost the integrity of their membranes.[63] […] Then staining of MCF-7 cells was carried out using two dyes; annexin V/propidium iodide (PI). Flow cytometry technique has detected the corresponding red (PI) and green (FITC) fluorescence. […] It was observable that the late apoptosis percentage caused by compounds 1, 3c was higher than that of the early phase making it more challenging to recover the apoptotic cells to the safe ones. The obtained results investigated that apoptosis was one of the main mechanisms of compounds 1, 3c to inhibits cancer cell proliferation (Fig. 5).
screening of final compounds.
using 1 μM concentration of ATP.
1.2.4. Annexin V-FITC apoptosis assay
Briefly, cells were seeded
Data was collected from three individual

S. aureus 25923 = assay: Agar well diffusion, inhibition zone; type: cell-based; settings: Staphylococcus aureus, 25923, read-out: Mean diameter of inhibition zone (mean ± SEM) S. aureus 25923
E. faecalis = assay: Agar well diffusion, inhibition zone; type: cell-based; settings: Enterococcus faecalis, read-out: Mean diameter of inhibition zone (mean ± SEM) E. faecalis
MCF-7 cells [2] = assay: In vitro cytotoxicity, MTT assay, MCF-7; settings: Homo sapiens, MCF7, read-out: IC50 MCF-7
HepG-2 cells = assay: In vitro cytotoxicity, MTT assay, HepG-2; settings: Homo sapiens, HepG2, read-out: IC50 HepG-2
WI-38 cells = assay: Cytotoxicity against normal fibroblasts WI-38 (safety); settings: Homo sapiens, WI-38, read-out: IC50 WI-38
BRAF^V600E = BRAF^V600E (Homo sapiens, UniProt P15056, V600E); assay: BRAFV600E kinase inhibitory assay (Reaction Biology HotSpot, 33P-ATP, MEK1 substrate)
EGFR = EGFR (Homo sapiens, UniProt P00533); assay: EGFR kinase inhibitory assay (Kinase-Glo Max luminescence)

Structure (SMILES)	necrotic percent (MCF-7 cells [1])	zone of inhibition at 500 µg/mL (S. aureus 25923)	zone of inhibition at 500 µg/mL (E. faecalis)	IC50 (MCF-7 cells [2])	IC50 (HepG-2 cells)	IC50 (WI-38 cells)	IC50 (BRAF^V600E)	early apoptosis (MCF-7 cells [1])	late apoptosis (MCF-7 cells [1])	IC50 (EGFR)
Cc1c(NC2=NC(=O)CS2)c(=O)n(-c2ccccc2)n1C [Compound 1, 2-((1,5-Dimethyl-3-oxo-2-phenyl-2,3-dihydro-1H-pyrazol-4-yl)amino)thiazol-4(5H)-one]	9.55%	31 ± 0.17 mm	28 ± 0.92 mm	4.02 ± 0.02 µM	4.52 ± 0.04 µM	60.4 µM	2.03 ± 0.5 µM	–	–	–
Cc1c(Nc2nc3c(C(=O)NN)c(N)sc3s2)c(=O)n(-c2ccccc2)n1C [Compound 3c, 5-Amino-2-((1,5-dimethyl-3-oxo-2-phenyl-2,3-dihydro-1H-pyrazol-4-yl)amino) thieno[3,2-d]thiazole-6-carbohydrazide]	8.42%	–	–	8.35 ± 0.03 µM	7.88 ± 0.01 µM	54.7 µM	0.088 ± 0.01 µM	1.92%	9.28%	0.017 ± 0.05 µM

Reference: article PMC8694192, “Synthesis and biological evaluation of new derivatives of thieno-thiazole and dihydrothiazolo-thiazole scaffolds integrated with a pyrazoline nucleus as anticancer and multi-targeting kinase inhibitors” (RSC Advances, 2021)
